# Values joined by “and” are separate entries in the source; they are usually repeats but may differ in a detail not shown here. Equal values may be shown once. About 20 (0.008%) of roughly 240,000 compounds were called active. Inconclusive results, whose numbers are uncertain, are shown with a selection of clear calls. The call rests on the fitted dose curve; in most records, active means well fitted inhibition curve with a large enough effect; inconclusive means small, poorly fitted or top-dose-only effect, or effect the other way; inactive means flat fitted curve, though single readings scatter. Potencies of inconclusive entries are left out as doubtful fits.
# Molecular target: Alpha-galactosidase A (Homo sapiens) (UniProt P06280)
# Assay: qHTS Assay for Inhibitors and Activators of Human alpha-Galactosidase From Spleen Homogenate;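 on activity change, negative = inhibition: 0% = enzyme with vehicle and -100% = no enzyme basal signal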
# Settings: 4MU-alpha-Gal fluorescence, 40 min; activity change, negative = inhibition: at 80 µM (top of the series)
# Excerpt: NIH Chemical Genomics Center [NCGC] NIH Molecular Libraries Probe Production Centers Network [MLPCN] MLPCN Grant: R03 MH084842-01 Assay Submitter (PI): Wei Zheng NCGC Assay Overview: Alpha-galactosidase is a homodimeric glycoprotein that hydrolyzes the terminal alpha-galactosyl moieties from glycolipids and glycoproteins. Deficiency of this enzyme results in Fabry Disease with progressive accumulation of globotriaosylceramide and other glycosphingolipids in vascular endothelial cells that causes renal failure, myocardial infarction and stroke, and premature death in patients. It has been reported that the improper folding and trafficking of alpha-galactosidase resulting from genetic mutations may account for a significant number of Fabry patients. […] We optimized this alpha-galactosidase assay in 1536-well plate format for identification of novel small molecule inhibitors or activators with structures other than the sugar analogs in order to develop new pharmacological chaperones. In particular, this assay is directed towards discovering compounds active in more natural setting, tissue homogenate, that may have been missed by screens of the purified enzyme under more stringent conditions.
# NCGC Assay Protocol Summary: This is a fluorogenic enzyme assay with 4-methylumbelliferyl-alpha-D-galactopyranoside as the substrate and human spleen homogenate containing alpha-galactosidase as the enzyme preparation. Upon hydrolysis of this fluorogenic substrate, the resulting product, 4-methylumbelliferone (which excites at 365 nm and emits at 440 nm) can be detected by a fluorescence plate reader. Data were normalized to the controls for basal activity (without enzyme) and 100% activity (with enzyme). The AC50 values were determined from concentration-response data modeled with the standard Hill equation. Assay buffer: 50 mM citric acid (titrated with potassium phosphate to pH 5.0), 0.01% Tween-20 (pH 5.0 is an optimal condition for this enzyme assay) 1536-well assay protocol for the alpha-galactosidase from human spleen homogenate: (1) Add 2 ul/well spleen homogenate (1 ug) (2) Add 23 nL compounds in DMSO solution. The final titration was 0.5 nM to 58 uM. (3) Add 2 ul of substrate (1 mM final) (4) Incubate at 37C for 40 min (5) Add 2 ul stop solution (1M NaOH and 1M Glycine mixture, pH 10) (6) Detect the assay plate in a ViewLux plate reader (PerkinElmer) with Ex=365 nm and Em=440nm. Keywords: Alpha-galactosidase, Fabry Disease, pharmacological chaperone, chaperone therapy, high throughput screening, alpha- galactosidase inhibitor, MLSMR, MLSCN, NIH Roadmap, qHTS and NCGC
# Potency means the concentration at half of the fitted maximal effect; tags describe the fitted curve by direction and shape.
# Chain of UniProt P06280 (P06280 whole entry, looked up): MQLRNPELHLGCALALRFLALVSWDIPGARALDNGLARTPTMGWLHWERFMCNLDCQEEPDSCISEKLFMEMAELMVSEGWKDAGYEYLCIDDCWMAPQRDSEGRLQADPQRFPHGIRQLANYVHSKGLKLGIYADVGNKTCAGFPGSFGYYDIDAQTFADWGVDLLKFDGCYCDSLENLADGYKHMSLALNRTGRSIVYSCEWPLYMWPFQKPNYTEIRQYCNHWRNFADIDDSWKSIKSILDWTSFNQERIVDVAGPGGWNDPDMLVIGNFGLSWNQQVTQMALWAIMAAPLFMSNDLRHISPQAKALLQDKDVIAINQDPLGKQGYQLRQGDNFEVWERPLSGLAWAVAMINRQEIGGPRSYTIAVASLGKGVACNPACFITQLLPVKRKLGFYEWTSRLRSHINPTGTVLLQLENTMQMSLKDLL
Structure (SMILES),"activity change, negative = inhibition",Potency
Cc1nnc(SC(C)C(=O)Nc2ccc3c(c2)OCCO3)s1 (stereo not given),inactive: 5.31%,
COc1ccccc1Nc1nc2c(C)cccc2cc1C#N,inactive: 0.0201%,
CCOC(=O)NCCc1ccc(OC)cc1,,"inconclusive [inhibitor, single point]"
COc1ccc(CCNC(=O)CNC(=O)Cn2ccc3ccccc3c2=O)cc1OC,inactive: 7.41%,
COc1cccc([C@@H]2Oc3ccc(Br)cc3[C@H](O)[C@H]2O)c1,inactive: -20.9%,
Cc1noc(C)c1COC(=O)CCc1nc2ccccc2s1,,"inconclusive [activator, single point]"
COc1ccc(OC)c(/C=C/C(=O)OCC(=O)Nc2cccc(Oc3ccccc3)c2)c1,,"inconclusive [activator, single point]"
O=C(c1ccc2c(c1)OCO2)N(c1ccccc1)C1C=CS(=O)(=O)C1 (stereo not given),,"inconclusive [inhibitor, single point]"
CCOc1ccc(NC(=S)NNC(=S)Nc2cccc(C(F)(F)F)c2)cc1,inactive: 1.13%,
N#Cc1c(-c2ccncc2)c2c([nH]c1=O)-c1ccccc1OC2,,"inconclusive [activator, partial curve]"
COC(=O)C1=CN(C)C=C(C(=O)OC)C1c1ccsc1,,"inconclusive [activator, partial curve]"
O=C(c1ccccc1)c1cccs1,inactive: 0.346%,
Cc1[nH]c2ccccc2c1SCCNC(=O)c1ccc(Br)o1,inactive: 7.55%,
Cn1c(N)c(C(=O)COC(=O)c2ccc(Cl)nc2)c(=O)n(C)c1=O,inactive: -0.608%,
CN(C)C(=O)COc1ncnc2scc(-c3ccc(F)cc3)c12,inactive: -5.86%,
O=c1c([N+](=O)[O-])cc(C(F)(F)F)cn1Cc1c(Cl)cccc1Cl,inactive: 5.07%,
CO[C@H]1C=CO[C@@]2(C)Oc3c(C)c(O)c4c(O)c(c5c(nc6cc(C)ccn65)c4c3C2=O)NC(=O)C(C)=CC=C[C@H](C)[C@H](O)[C@@H](C)[C@@H](O)[C@@H](C)[C@H](OC(C)=O)[C@@H]1C,inactive: 3.53%,
CCOC(=O)c1ccc(NC(=O)CC2COc3ccccc3O2)cc1 (stereo not given),,"inconclusive [inhibitor, single point]"
CCOC(=O)c1cc2c(s1)-c1c(C)cccc1OC2,,"inconclusive [activator, single point]"
COc1cc2c(cc1OC)C(C(C)C)=NC(C)(C)C2,,"inconclusive [activator, single point]"
Cc1nc2c(-c3ccccc3)c(C)nn2c(C)c1CCC(=O)O,,"inconclusive [inhibitor, full curve, poor fit]"
CCOC(=O)C1CCCN(C(=O)CCC(=O)Nc2ccc3nc(N4CCOCC4)cc(C)c3c2)C1 (stereo not given),,"inconclusive [activator, partial curve]"
O=C(CNC(=O)c1ccco1)OCC(=O)c1ccccc1,,"inconclusive [activator, partial curve]"
Clc1cncc(Cl)c1NNc1c2ccccc2nc2ccccc12,,"inconclusive [activator, partial curve]"

Structure (SMILES),"activity change, negative = inhibition",Potency
CC(=O)N(C1=C(N2CCOCC2)C(=O)c2ccccc2C1=O)c1ccc(C(=O)O)cc1,inactive: -1.7%,
c1ccc2c(N3CCCCC3)nc(N3CCCC3)nc2c1,,"inconclusive [activator, single point]"
Cc1ccc2nc(-c3ccc(NS(=O)(=O)c4ccc(F)cc4)cc3)sc2c1,,"inconclusive [activator, partial curve]"
Cc1ccc(S(=O)(=O)NCc2ccc3c(c2)cc(C)n3C)cc1,inactive: -18.3%,
COc1ccc(/C=C2\CCOC2=O)cc1,,inactive
CCS(=O)(=O)c1nc(S(=O)(=O)c2ccc(Cl)cc2)c(NCc2ccccn2)s1,inactive: -5.59%,
COC(=O)c1[nH]c2cc(OC)c(OC)cc2c1NC(=O)Oc1ccccc1,inactive: 3.72%,
CCOC(=O)C1CCCN(Cc2nc(N)nc(Nc3ccccc3)n2)C1 (stereo not given),inactive: 5.66%,
CCC(=O)Oc1ccc2c(C)cc(=O)oc2c1C,,"inconclusive [activator, partial curve]"
N#CC1=C(N)N(c2ccccc2)C(c2cccc([N+](=O)[O-])c2)C1(C#N)C#N (stereo not given),,"inconclusive [activator, single point]"
Cc1cc(=O)oc2cc(OC(=O)CCCCCN3C(=O)c4ccccc4C3=O)ccc12,,"inconclusive [activator, single point]"
CCC(=O)Nc1nnc(CCc2ccccc2)s1,inactive: 2.63%,
CC(=O)Nc1ccc(S(=O)(=O)Nc2nc3cc4c(cc3nc2Cl)OCCO4)cc1,,"inconclusive [activator, partial curve]"
COc1ccc(Oc2ncc3nc(-c4cc(F)cc(F)c4)c(=O)n(C[C@H]4CCCO4)c3n2)cc1,,"inconclusive [inhibitor, partial curve]"
CCOc1cc2c(cc1/C=C/C(=O)O)OC(C)C2 (stereo not given),,"inconclusive [activator, single point]"
CC1(C)Cc2c(C#N)c(SCc3nc4ccccc4[nH]3)nc(N3CCOCC3)c2CO1,,"inconclusive [activator, single point]"
CC(C)CC(c1nnnn1C1CCCCC1)N1CCN(c2ncccn2)CC1 (stereo not given),,"inconclusive [inhibitor, single point]"
Cn1c(=O)c2c(nc(NCc3ccc4c(c3)OCO4)n2Cc2ccccc2)n(C)c1=O,inactive: 9.8%,
Cn1c(=O)c2c(nc(SCc3cccnc3)n2Cc2ccccc2)n(C)c1=O,inactive: -7.38%,
O=c1c2ccccc2nc2ccccn12,,"inconclusive [activator, partial curve]"
Cc1c(C(=O)NC(C(C)C)C(C)C)cccc1[N+](=O)[O-],,"inconclusive [inhibitor, full curve, poor fit]"
CC1(C)CC(O)C(C(O)c2cccc([N+](=O)[O-])c2)C(C)(C)N1 (stereo not given),inactive: -5.17%,
CCCn1c(-c2cccs2)nc2nc3ccccc3nc21,,"inconclusive [activator, partial curve]"
CN1CCN(c2ncc3nc(-c4ccc(Cl)cc4)c(=O)n(-c4ccccc4)c3n2)CC1,,"inconclusive [activator, partial curve]"

Structure (SMILES),"activity change, negative = inhibition",Potency
CCSc1nnc(-c2ccccc2SC)o1,,"inconclusive [inhibitor, single point]"
O=c1c(-c2ccccc2)nc2cnc(Nc3ccccc3)nc2n1Cc1cccs1,inactive: 10.2%,
COC(=O)C1=C(C)N(Cc2ccccc2)[C@]23O[C@](C(=O)OC)(C(=O)N2C1c1ccccc1)C1C(=O)N(C)C(=O)C13 (stereo not given in full),inactive: 8.38% [at 17.5 µM] and inactive: 0.659% [at 17.5 µM],
CN(C)c1ncc2nc(-c3ccccc3)c(=O)n(C3CC3)c2n1,,"inconclusive [activator, single point]"
C=CCNc1nc(N)c(C(=C(C#N)C#N)c2ccc(Br)cc2)s1,,"inconclusive [activator, single point]"
COc1ccccc1[C@@H]1C(c2cccc(Cl)c2)=NN(c2ccccc2)[C@H]1C(=O)N1CCOC1=O,,"inconclusive [activator, single point]"
CCOCCCn1c(=NC(=O)c2cccs2)c(C#N)cc2c(=O)n3ccccc3nc21,,"inconclusive [activator, partial curve]"
CCn1cc(C(=O)N2CCCC2)c(=O)c2cc(S(=O)(=O)N3CCOCC3)ccc21,,"inconclusive [inhibitor, single point]"
CC1=C/C(=C/N(C)c2ccccc2)C(=O)S1,,"inconclusive [activator, single point]"
COC(=O)C/C=C/[C@@H](C)[C@@H](/C=N/O[C@@H](C)c1cn([C@H](CO)Cc2ccccc2)nn1)NS(=O)(=O)c1ccc(C)cc1,inactive: -1.05%,
O=S(=O)(/N=S1/CC=CCN1S(=O)(=O)c1ccccc1)c1ccccc1 (stereo not given),inactive: 1.53%,
Cc1ccc(C(=O)N(CC(=O)NC2CCCC2)Cc2cccs2)s1,,"inconclusive [inhibitor, single point]"
COc1ccc(-c2nc3cnc(N4CCN(C)CC4)nc3n(Cc3cccs3)c2=O)cc1,,"inconclusive [activator, single point]"
CN(/N=C/c1ccc(Cl)cc1)c1ncc(Cl)cc1C(F)(F)F,,"inconclusive [inhibitor, partial curve]"
COC(=O)C1=CN(CC2CCCO2)C=C(C(=O)OC)C1c1ccsc1 (stereo not given),,"inconclusive [activator, partial curve]"
O=C(CCCN1C(=O)c2cccc3cccc(c23)C1=O)N1CCN(c2ccccc2O)CC1,inactive: 9.89%,
COC(=O)c1ccc(CSc2cc(C)c3cc(C)cc(C)c3n2)o1,,"inconclusive [inhibitor, partial curve]"
COC(=O)c1cc(=O)c2cccc(OC)c2[nH]1,,"inconclusive [activator, partial curve]"
O=c1c(Cl)c(N2CCN(c3ccccc3)CC2)cnn1C12CC3CC(CC(C3)C1)C2,,"inconclusive [inhibitor, single point]"
N=c1oc2ccc3ccccc3c2cc1-c1nnc2n1CCCCC2,,"inconclusive [activator, partial curve]"
CCC1Oc2nc(SC)nnc2-c2ccccc2N1C(=O)c1ccccc1 (stereo not given),inactive: -2.02%,
COC(=O)c1cc2c(s1)-c1ccc(OC)cc1CC2,,"inconclusive [activator, partial curve]"

# Source: PubChem BioAssay AID2107 (National Center for Advancing Translational Sciences (NCATS), 2009)
